From PubChem BioAssay AID686979 (National Center for Advancing Translational Sciences (NCATS), 2013)
The whole screen tested about 420,000 compounds, of which about 50,000 (12%) were called active. Inconclusive means that the source gave no clear call. Such entries were picked first, then a sample of the others. The call rests on the fitted dose curve; in most records, active means well fitted inhibition curve with a large enough effect; inconclusive means small, poorly fitted or top-dose-only effect; inactive means flat fitted curve, though single readings scatter. No potency is given beside an inconclusive call; the fits are too rough.

Assay: qHTS for Inhibitors of human tyrosyl-DNA phosphodiesterase 1 (TDP1): qHTS in cells in presence of CPT; further: nearly all actives have a fitted effect of over 55% in size
Conditions: chicken DT40 Tdp1-/-;hTDP1 cells + 20 nM CPT, ATP luminescence, 48 h; activity change, negative = growth inhibition: at 46.2 µM (top of the series) unless noted
Procedure, shortened: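 Cell growth measured by CellTiter-Glo luminescence after a minimum 48 h, 37 C compound exposure with 20 nM CPT in Tdp1-knockout DT40 cells stably expressing hTDP1, seeded 400/well; qHTS titration format.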
On the % scale 0 is the no-effect control and ±100 the full control effect; potency means the concentration at half of the fitted maximal effect; tags describe the fitted curve by direction and shape.

SMILES | Potency | activity change, negative = growth inhibition
CC(C)c1onc(C(=O)N2CCN(C(c3ccccc3)c3ccccc3)CC2)c1[N+](=O)[O-] | inconclusive [inhibitor, single point] | –
Cc1ccc(CN2CC(C(=O)Nc3ccc(S(=O)(=O)N4CCCCC4)cc3)CC2=O)cc1 (stereo not drawn) | inconclusive [inhibitor, single point] | –
O=C(O)C(=O)/C(=C\c1cccc2ccccc12)c1ccc2ccccc2n1 | inconclusive [inhibitor, single point] | –
COc1ccc(C(=O)Nc2ccc(SC(F)F)cc2)cc1 | inactive | –
CC1=C(C(=O)Nc2ccccc2)C(c2ccncc2)C(C#N)=C(SCC(=O)NC(C)C)N1 (stereo not drawn) | inconclusive [inhibitor, full curve] | –
CCS(=O)(=O)NCc1ccc2c(c1)cc(C)n2C | inactive | –
Cc1ccc(OCC(=O)N2CCN(c3nnc(-c4ccccc4)c4ccccc34)CC2)cc1 | inconclusive [inhibitor, single point] | –
CC(=O)c1ccc(N2CCN(C(=O)C3CCCN(S(=O)(=O)c4cnc[nH]4)C3)CC2)cc1 (stereo not drawn) | inactive | –
COc1ccc(N2CCN(C(=O)c3oc4ccccc4c3NC(=O)Cc3ccc(OC)c(OC)c3)CC2)cc1 | inconclusive [inhibitor, single point] | –
CC(OC(=O)c1nccnc1N)C(=O)Nc1ccc(S(=O)(=O)N2CCCC2)cc1 (stereo not drawn) | inactive | –
COc1ccc2c(c1)CCc1c(C(=O)Nc3cc(C)n(Cc4ccc(Cl)cc4)n3)noc1-2 | inconclusive [inhibitor, single point] | –
CC1(C)CC(=O)C2=C(C1)Nc1cc3c(cc1C2c1ccc(F)cc1)OCO3 (stereo not drawn) | inconclusive [inhibitor, single point] | –
Nc1ccc(OC(=O)Nc2ccc(O)cc2)cc1 | inconclusive [inhibitor, single point] | –
Cc1cc(=O)oc2cc(OCC(O)CN3CCc4ccccc4C3)ccc12 (stereo not drawn) | inactive | –
OCCC1CN(Cc2ccc3cc(Cl)ccc3n2)CCN1Cc1ccsc1 (stereo not drawn) | active: 13 µM | –
CCCOc1ccc(C2C(C(=O)c3ccc(C)o3)=C(O)C(=O)N2CCCn2ccnc2)cc1 (stereo not drawn) | inconclusive [inhibitor, single point] | –
CC(C(=O)O)n1ncc2ccccc2c1=O (stereo not drawn) | inconclusive [inhibitor, single point] | –
CCOc1cc(C(=S)N2CCOCC2)ccc1OC(=O)c1ccccc1 | – | inconclusive: -31.4% [inhibitor]
CCc1nc(NCCC(C)C)c2nnn(Cc3ccccc3)c2n1 | inconclusive [inhibitor, single point] | –
CCOc1ccc(C(=O)NCC(c2ccco2)N2CCOCC2)cc1 (stereo not drawn) | inactive | –
COc1ccc(-c2nc3scc(CCNS(=O)(=O)c4c(C)noc4C)n3n2)cc1 | inconclusive [inhibitor, single point] | –
Cc1ccc(NC(=O)/C=C/c2ccccc2)c(Br)c1 | inconclusive [inhibitor, partial curve] | –
Oc1ccccc1Oc1ncc(Br)c(Cl)n1 | inactive | –
Cc1ccc(C)c(NC(=O)c2cc(-c3cc(C)ccc3O)n[nH]2)c1 | inconclusive [inhibitor, single point] | –

SMILES | Potency | activity change, negative = growth inhibition
Cc1ccc(NC(=O)CN2C(=O)NC3(CCCCC3C)C2=O)cc1S(=O)(=O)N1CCCCC1 (stereo not drawn) | inconclusive [inhibitor, single point] | –
O=C(COC(=O)CSc1ccc2ccccc2c1Br)NC1CC1 | inactive | –
O=C(NCCCCc1ccccc1)c1ccccc1 | – | inconclusive: -31.1% [inhibitor]
Cc1cc(-n2c(C)cc(C(=O)COc3ccc(F)c(F)c3)c2C)no1 | active: 23.1 µM | –
COC(=O)C1=CN(c2ccc(N3CCOCC3)cc2)C(N)=C(C#N)C1c1ccc(-c2ccccc2)cc1 (stereo not drawn) | active: 7.31 µM | –
C=CCOc1cccc(C2NC(=O)c3ccccc3O2)c1 (stereo not drawn) | inactive | –
CCN1CCc2c(sc(NC(=O)COc3ccccc3)c2C(=O)OC)C1 | inconclusive [inhibitor, single point] | –
C=CCn1c(=O)c(C(=O)NCc2ccc3c(c2)OCO3)c(O)c2cc(OC)c(OC)cc21 | inconclusive [inhibitor, single point] | –
Cn1c(=O)c(=O)n(C)c2cc(S(=O)(=O)NCCN3CCN(c4ccccc4F)CC3)ccc21 | inactive | –
COc1ccc(C(=O)Nc2nc(CC(=O)NCCc3ccccc3)cs2)cc1 | inconclusive [inhibitor, single point] | –
CC(C)(C)c1ccc(C(=O)c2c[nH]c(C(=O)NCCCn3ccnc3)c2)cc1 | inconclusive [inhibitor, single point] | –
Cc1cccc(NC(=O)CCC(=O)N/N=C/c2ccc(O)cc2O)c1 | inactive | –
COc1ccc(C=O)c2[nH]c3c(Cl)ncnc3c12 | inactive | –
O=c1c2cc(F)ccc2sn1-c1ccccc1Cl | active: 2.59 µM | –
Cc1csc(NC(=O)CSc2nsc(SCC(=O)Nc3nc(C)cs3)c2C#N)n1 | active: 15.8 µM | –
Cc1ccc(S(=O)(=O)NCCc2nnc3ccc(SCc4ccccc4C)nn23)cc1 | active: 16.4 µM | –
COc1ccccc1OCC(=O)Nc1cccc(N(C)S(C)(=O)=O)c1 | inactive | –
COc1ccc(CNC(=O)CSc2nnc(C3CC3)n2C2CC2)cc1 | inactive | –
O=[N+]([O-])c1cc([N+](=O)[O-])c2n[nH]c(-c3ccccc3)c2c1 | inactive | –
COc1c(C)cc(S(=O)(=O)NCc2ccco2)c(C)c1C | inactive | –
O=C(CCC(=O)N/N=C/c1ccccc1O)NCc1ccccc1 | inconclusive [inhibitor, single point] | –
CC1(C(=O)Nc2ccccc2)CCN1C(=O)C1(c2ccc(Cl)cc2)CC1 (stereo not drawn) | inconclusive [inhibitor, partial curve, poor fit] | –
CCOc1ccc(Br)cc1/C=N/NC(=O)c1ccncc1 | inconclusive [inhibitor, single point] | –
O=C(Nc1ccc(Cc2ccncc2)cc1)c1ccc(S(=O)(=O)N2CCOCC2)cc1 | inconclusive [inhibitor, partial curve] | –
